The target of test [1] is ^FLAGhCdc123 in Flp-In T-REx-293 cells (human) (UniProt O75794). The test can be described thus: co-IP; Flp-In T-REx-293 cells with FLAG-heIF2γ or FLAG-hCdc123; around 8 mg lysate (150 mM NaCl, 50 mM Tris-HCl pH 8.2, 1% Triton X-100) on M2 anti-FLAG matrix, 2 h, 4 °C, eluted with 3x FLAG peptide; enrichment from extract to IP, heIF2γ set to 100% (n = 1).
Test [2] addresses T1, C-terminally FLAG-tagged Cdc123 (S. cerevisiae, UniProt Q05791 1-360).
T1 construct: Cdc123 of S. cerevisiae; also called Cdc123^FLAG; source: S. cerevisiae, in lysate; not shown: FLAG, C-terminal, kept
T1 sequence (looked up): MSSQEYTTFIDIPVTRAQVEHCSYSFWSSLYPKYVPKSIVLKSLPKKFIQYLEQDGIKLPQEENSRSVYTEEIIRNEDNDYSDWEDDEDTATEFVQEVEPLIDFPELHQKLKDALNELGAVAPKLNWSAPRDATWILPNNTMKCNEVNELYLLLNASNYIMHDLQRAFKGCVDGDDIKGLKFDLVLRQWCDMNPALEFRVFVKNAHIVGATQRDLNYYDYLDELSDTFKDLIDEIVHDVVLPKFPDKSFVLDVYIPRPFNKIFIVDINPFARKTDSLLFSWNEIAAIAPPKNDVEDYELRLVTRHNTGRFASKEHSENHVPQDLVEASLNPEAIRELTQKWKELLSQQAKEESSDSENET
As to the kind of experiment: co-IP; Cdc123-FLAG precipitated with anti-FLAG beads from yeast strains overexpressing HA-tagged Sui2 variants (or Sui3) from the GAL1 promoter, compared with endogenous levels.

Amino acid sequences for entries named in this document (tags omitted).
UniProt O75794: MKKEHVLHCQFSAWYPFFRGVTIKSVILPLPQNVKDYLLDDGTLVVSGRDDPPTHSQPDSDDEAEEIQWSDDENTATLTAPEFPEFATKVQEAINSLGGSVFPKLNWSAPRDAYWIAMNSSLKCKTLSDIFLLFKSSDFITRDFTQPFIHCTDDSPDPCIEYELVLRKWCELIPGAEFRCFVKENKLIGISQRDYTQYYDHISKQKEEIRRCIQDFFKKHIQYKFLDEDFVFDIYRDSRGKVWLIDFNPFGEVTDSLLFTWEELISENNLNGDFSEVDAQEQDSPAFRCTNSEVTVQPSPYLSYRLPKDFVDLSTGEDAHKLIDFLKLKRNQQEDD
UniProt P41091: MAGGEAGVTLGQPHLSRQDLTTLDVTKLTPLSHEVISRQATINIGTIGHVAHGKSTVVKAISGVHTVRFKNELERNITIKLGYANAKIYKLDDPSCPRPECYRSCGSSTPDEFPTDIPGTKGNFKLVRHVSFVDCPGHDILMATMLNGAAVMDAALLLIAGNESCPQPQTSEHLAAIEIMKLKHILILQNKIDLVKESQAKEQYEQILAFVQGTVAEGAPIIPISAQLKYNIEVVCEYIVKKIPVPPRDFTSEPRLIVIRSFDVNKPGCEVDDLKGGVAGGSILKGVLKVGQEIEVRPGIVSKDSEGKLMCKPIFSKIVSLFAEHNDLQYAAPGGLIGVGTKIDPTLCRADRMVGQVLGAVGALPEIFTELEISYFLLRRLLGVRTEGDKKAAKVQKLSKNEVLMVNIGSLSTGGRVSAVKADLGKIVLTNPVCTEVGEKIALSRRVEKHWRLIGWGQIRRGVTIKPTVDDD

Test [3] concerns the target T2, N-terminally 3xFLAG-tagged Sui2 V220E (S. cerevisiae) (UniProt P20459).
T2 sequence: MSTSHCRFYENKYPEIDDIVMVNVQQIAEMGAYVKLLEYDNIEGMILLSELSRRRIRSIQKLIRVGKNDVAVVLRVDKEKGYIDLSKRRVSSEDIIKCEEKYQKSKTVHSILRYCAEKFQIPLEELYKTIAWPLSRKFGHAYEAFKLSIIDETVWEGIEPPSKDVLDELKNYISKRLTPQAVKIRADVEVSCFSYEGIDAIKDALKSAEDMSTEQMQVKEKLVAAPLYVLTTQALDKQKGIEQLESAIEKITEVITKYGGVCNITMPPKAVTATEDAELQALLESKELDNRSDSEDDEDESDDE
As to the kind of experiment: co-IP; N-terminally 3xFLAG-tagged Sui2 variants (TEF2 promoter) precipitated with anti-FLAG beads from yeast extract; Western blot for myc-Cdc123, Gcd11 and Sui3. (A western blot detects proteins with antibodies after separation by electrophoresis.)

Test [4] deals with T3, N-terminally 3xFLAG-tagged Sui2 L205E (S. cerevisiae) (UniProt P20459).
T3 sequence: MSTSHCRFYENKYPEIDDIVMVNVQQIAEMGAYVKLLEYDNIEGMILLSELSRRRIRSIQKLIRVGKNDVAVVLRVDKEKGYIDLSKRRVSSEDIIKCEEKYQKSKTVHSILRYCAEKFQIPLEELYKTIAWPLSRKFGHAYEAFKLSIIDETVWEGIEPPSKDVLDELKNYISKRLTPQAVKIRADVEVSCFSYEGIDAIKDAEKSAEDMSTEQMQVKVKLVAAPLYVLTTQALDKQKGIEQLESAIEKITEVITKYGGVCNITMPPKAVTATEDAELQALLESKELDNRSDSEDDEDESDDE
Described as above.

Test [5] deals with T4, endogenously FLAG-tagged Sui2 (S. cerevisiae) (UniProt P20459).
T4 sequence: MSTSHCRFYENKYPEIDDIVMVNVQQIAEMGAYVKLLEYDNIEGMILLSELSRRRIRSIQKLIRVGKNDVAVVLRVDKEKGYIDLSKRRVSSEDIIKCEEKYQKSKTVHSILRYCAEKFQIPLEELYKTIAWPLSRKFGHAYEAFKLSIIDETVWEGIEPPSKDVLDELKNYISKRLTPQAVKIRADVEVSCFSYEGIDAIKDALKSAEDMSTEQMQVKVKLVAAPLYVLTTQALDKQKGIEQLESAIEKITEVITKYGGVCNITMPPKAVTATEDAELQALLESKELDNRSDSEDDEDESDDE
As to the kind of experiment: co-IP; endogenously FLAG-tagged Sui2, Sui3 or Gcd11 precipitated with anti-FLAG beads from yeast extract, 4 °C, 2 h; Cdc123 signal normalised to the FLAG-tagged subunit, Gcd11 set to 100% (n = 3).

Test [6] has as its target T1, C-terminally FLAG-tagged Cdc123. As to the kind of experiment: co-IP; Cdc123-FLAG precipitated with anti-FLAG beads from yeast extract, 4 °C, 2 h; subunit signal in IP normalised to whole cell extract, Gcd11 set to 100% (n = 3); also SUI2/SUI2 against sui2Δ/SUI2 diploid strains (n = 4).
Test [7] concerns the target T5, FLAG-tagged Gcd11 (410-527), domain III (S. cerevisiae) (UniProt P32481).
T5 sequence: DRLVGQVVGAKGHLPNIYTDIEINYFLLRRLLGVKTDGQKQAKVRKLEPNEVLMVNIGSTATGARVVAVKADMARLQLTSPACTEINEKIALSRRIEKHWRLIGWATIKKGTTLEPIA
The test can be described thus: co-IP; FLAG-Gcd11 variants (coexpressed with endogenous Gcd11) precipitated with anti-FLAG beads from yeast whole cell extract (around 2 mg protein), 4 °C, 2 h; Western blot of coprecipitated proteins; Cdc123 quantified against WT Gcd11 (n = 3).

The target of test [8] is FLAG-tagged Gcd11 WT (S. cerevisiae) (UniProt P32481). The test is described as above.
Test [9] concerns the target FLAG-tagged Gcd11 (1-514) (S. cerevisiae) (UniProt P32481). Described as above.
The target in test [10] is T6, N-terminally FLAG-tagged Sui3 Y131A/S132A (S. cerevisiae) (UniProt P09064).
T6 sequence: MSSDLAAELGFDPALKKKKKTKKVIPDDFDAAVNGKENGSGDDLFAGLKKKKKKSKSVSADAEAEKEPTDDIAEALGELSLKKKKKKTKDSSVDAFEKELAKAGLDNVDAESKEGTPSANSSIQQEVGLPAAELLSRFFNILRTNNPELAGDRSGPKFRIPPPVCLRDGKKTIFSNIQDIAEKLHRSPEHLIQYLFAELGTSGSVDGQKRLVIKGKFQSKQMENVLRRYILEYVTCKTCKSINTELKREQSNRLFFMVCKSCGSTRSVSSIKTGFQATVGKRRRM
The test can be described thus: co-IP; N-terminally FLAG-tagged Sui3 variants (GAL1 promoter) precipitated with anti-FLAG beads from yeast extract; Western blot for Gcd11, Sui2, Cdc123 and Tif5-13xMYC.

The target of test [11] is T7, N-terminally FLAG-tagged Sui3 L134R/L135R (S. cerevisiae) (UniProt P09064).
T7 sequence: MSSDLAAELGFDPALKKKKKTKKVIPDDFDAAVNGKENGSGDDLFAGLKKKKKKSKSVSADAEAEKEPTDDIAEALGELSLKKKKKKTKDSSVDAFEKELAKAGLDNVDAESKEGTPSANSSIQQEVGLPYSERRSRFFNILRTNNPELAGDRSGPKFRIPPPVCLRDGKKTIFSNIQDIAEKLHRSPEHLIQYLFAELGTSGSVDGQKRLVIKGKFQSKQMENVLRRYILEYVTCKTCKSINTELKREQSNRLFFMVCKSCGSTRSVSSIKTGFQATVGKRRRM
The description is as above.

The target in test [12] is endogenously FLAG-tagged Gcd11 (S. cerevisiae) (UniProt P32481). As to the kind of experiment: co-IP; endogenously FLAG-tagged Sui2, Sui3 or Gcd11 precipitated with anti-FLAG beads from yeast extract, 4 °C, 2 h; Cdc123 signal normalised to the FLAG-tagged subunit, Gcd11 set to 100% (n = 3).
The target of test [13] is T2, N-terminally 3xFLAG-tagged Sui2 V220E (S. cerevisiae). As to the kind of experiment: co-IP; N-terminally 3xFLAG-tagged Sui2 variants (TEF2 promoter) precipitated with anti-FLAG beads from yeast extract; Western blot for myc-Cdc123, Gcd11 and Sui3. This is another data set of the same source.
Test [14] has as its target T3, N-terminally 3xFLAG-tagged Sui2 L205E (S. cerevisiae). The test is described as above. The source holds these as a separate data set.
For test [15], the target named is T8, N-terminally 3xFLAG-tagged Sui2 WT (TEF2 promoter) (S. cerevisiae) (UniProt P20459).
T8 sequence: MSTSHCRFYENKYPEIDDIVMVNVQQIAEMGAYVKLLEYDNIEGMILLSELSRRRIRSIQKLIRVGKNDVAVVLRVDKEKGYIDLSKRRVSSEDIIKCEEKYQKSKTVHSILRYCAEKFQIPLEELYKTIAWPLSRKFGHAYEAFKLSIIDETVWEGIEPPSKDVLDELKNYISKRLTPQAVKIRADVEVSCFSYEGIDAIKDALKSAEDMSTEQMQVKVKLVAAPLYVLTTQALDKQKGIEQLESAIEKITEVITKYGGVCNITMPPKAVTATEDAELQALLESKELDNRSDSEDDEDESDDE
The test is described as above.

Read-outs that look alike come from different tables or passages of the source. No constants are given. Whether binding was seen depends on the method and setting. Binding seen in cells or lysates may run through a third protein. Some binding calls cover weakened binding; strength is not graded here. For part of these data: Where a sequence is shown, tags or fusion partners need not be part of it.

Consider “heIF2γ (endogenous) (from UniProt P41091 1-472)”, for which the binding result in test [1] is “binds”.

B1: yeast eIF2γ (Gcd11) (natural protein, UniProt P32481 1-527, looked up)
chain: MSDLQDQEPSIIINGNLEPVGEPDIVEETEVVAQETQETQDADKPKKKVAFTGLEEDGETEEEKRKREFEEGGGLPEQPLNPDFSKLNPLSAEIINRQATINIGTIGHVAHGKSTVVRAISGVQTVRFKDELERNITIKLGYANAKIYKCQEPTCPEPDCYRSFKSDKEISPKCQRPGCPGRYKLVRHVSFVDCPGHDILMSTMLSGAAVMDAALLLIAGNESCPQPQTSEHLAAIEIMKLKHVIILQNKVDLMREESALEHQKSILKFIRGTIADGAPIVPISAQLKYNIDAVNEFIVKTIPVPPRDFMISPRLIVIRSFDVNKPGAEIEDLKGGVAGGSILNGVFKLGDEIEIRPGIVTKDDKGKIQCKPIFSNIVSLFAEQNDLKFAVPGGLIGVGTKVDPTLCRADRLVGQVVGAKGHLPNIYTDIEINYFLLRRLLGVKTDGQKQAKVRKLEPNEVLMVNIGSTATGARVVAVKADMARLQLTSPACTEINEKIALSRRIEKHWRLIGWATIKKGTTLEPIA
notes: Gcd11, eIF2 gamma subunit of S. cerevisiae, untagged endogenous protein detected with antiserum; source: endogenous, S. cerevisiae (W303 derivatives) lysate
As for B1, the binding result in [2] is reported as “binds”; in test [3], “no binding”; in [4] it was “no binding”; in test [5], “binds”; in test [6], “binds”.

B2: Cdc123 (yeast) (protein, UniProt Q05791 1-360)
chain: MSSQEYTTFIDIPVTRAQVEHCSYSFWSSLYPKYVPKSIVLKSLPKKFIQYLEQDGIKLPQEENSRSVYTEEIIRNEDNDYSDWEDDEDTATEFVQEVEPLIDFPELHQKLKDALNELGAVAPKLNWSAPRDATWILPNNTMKCNEVNELYLLLNASNYIMHDLQRAFKGCVDGDDIKGLKFDLVLRQWCDMNPALEFRVFVKNAHIVGATQRDLNYYDYLDELSDTFKDLIDEIVHDVVLPKFPDKSFVLDVYIPRPFNKIFIVDINPFARKTDSLLFSWNEIAAIAPPKNDVEDYELRLVTRHNTGRFASKEHSENHVPQDLVEASLNPEAIRELTQKWKELLSQQAKEESSDSENET
For B2, the binding result in test [7] was “binds”; in test [8], “binds”; in test [9], “no binding”; in [10], “no binding”; in test [11] it was “no binding”; in [12], “binds”.

B3: myc-tagged Cdc123 (protein, UniProt Q05791 1-360)
chain: MSSQEYTTFIDIPVTRAQVEHCSYSFWSSLYPKYVPKSIVLKSLPKKFIQYLEQDGIKLPQEENSRSVYTEEIIRNEDNDYSDWEDDEDTATEFVQEVEPLIDFPELHQKLKDALNELGAVAPKLNWSAPRDATWILPNNTMKCNEVNELYLLLNASNYIMHDLQRAFKGCVDGDDIKGLKFDLVLRQWCDMNPALEFRVFVKNAHIVGATQRDLNYYDYLDELSDTFKDLIDEIVHDVVLPKFPDKSFVLDVYIPRPFNKIFIVDINPFARKTDSLLFSWNEIAAIAPPKNDVEDYELRLVTRHNTGRFASKEHSENHVPQDLVEASLNPEAIRELTQKWKELLSQQAKEESSDSENET
For B3, the binding entry in [13], in test [14] and in test [15] was “binds weakly” in each case.

The values are drawn from PMC8844851 (The Journal of Biological Chemistry, 2022).
